Laboratory results as given in PubChem BioAssay AID651820 (National Center for Advancing Translational Sciences (NCATS), 2012).
Several values for one entry are separate records, joined by “and”; a condition that tells them apart may be missing. Equal values may be shown once. Hit rate of the full screen: of about 340,000 compounds, about 12,000 (3.5%) were called active. Inconclusive means that the source gave no clear call. Such entries were picked first, then a sample of the others. Calls follow the shape of the dose curve; as a rule, active = well fitted inhibition curve with a large enough effect; inconclusive = small, poorly fitted or top-dose-only effect, or another doubt; inactive = no such curve, though single readings can be large or run the other way. Where the call is inconclusive, the potency comes from a doubtful curve fit.

experiment: qHTS Assay for Inhibitors of Hepatitis C Virus (HCV); conditions: Huh7.5.1 HCVcc-Cre (HCVcc is cell-culture hepatitis C virus) infection, luciferase reporter, 44 h; activity change, negative = inhibition: at 41.8 µM (top of the series) unless noted
Outline: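 HCVcc-Cre virus at an moi near 0.5 was added right after compound to cells cultured 4 h from seeding (1,000 cells/well). Luciferase activity was determined 44 h later, 15 min after substrate addition at RT.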
% is scaled to controls: 0 for no effect and ±100 for the full control effect; potency is read from the fitted curve at half-maximal effect; tags tell the direction and shape of the fitted curve.

Compound | Potency | activity change, negative = inhibition
Cc1cccc(C(=O)NCC(=O)N2CCN(S(=O)(=O)c3ccccc3)CC2)c1 | inconclusive: 31.6 µM [inhibitor, single point] | –
COc1ccc(N2C(=O)/C(=C/c3ccc([N+](=O)[O-])cc3)C=C2c2ccccc2)cc1 | inconclusive: 3.16 µM [inhibitor, full curve] | –
COC(=O)c1ccc(CNC(=O)c2cc(COc3cncc(Cl)c3)on2)cc1 | inconclusive: 31.6 µM [inhibitor, single point] | –
COc1ccc(C(C)(C)C)cc1NC(=O)c1cncc(Br)c1 | inconclusive: 8.91 µM [inhibitor, partial curve] | –
Cc1ccccc1CS(=O)(=O)CCC(=O)NCCN1CCN(c2cccc(Cl)c2)CC1 | inconclusive: 11.2 µM [inhibitor, partial curve] | –
CCOC(=O)/C(N=Nc1c(C)n(C)n(-c2ccccc2)c1=O)=C(\C)O | – | inactive: 12.1%
Cc1ccc(C)c(N2CCN(CCCNC(=O)Cn3cc4c(n3)CCCCC4)CC2)c1 | active: 5.62 µM | –
COCC(C)NC(=O)CCSc1nc(-c2ccc(OC)cc2)cc(C(F)(F)F)n1 (configuration not stated) | inconclusive: 3.16 µM [inhibitor, partial curve] | –
CCOc1ccccc1N1CCN(C(=O)c2ccccc2OCc2c(C)noc2C)CC1 | – | inactive: -0.76%
CCn1c(=O)c2sccc2n2c(CCCC(=O)NC3CCN(Cc4ccccc4)CC3)nnc12 | – | inactive: 2.75%
CCNc1cc(N2CCCC2)ccc1[N+](=O)[O-] | inconclusive: 3.98 µM [inhibitor, partial curve] | –
COc1ccc(OC)c(NC(=O)CSc2nnc(Cc3cccn3C)n2-c2ccc(F)cc2)c1 | inactive and inconclusive: 22.4 µM [inhibitor, single point] | –
O=C(CSc1nccc(-c2cccs2)n1)Nc1ccc(F)c(Cl)c1 | inconclusive: 14.1 µM [inhibitor, single point] | –
O=C1CSc2ccc(C(=O)O)cc2N1 | – | inactive: 8.43%
CNS(=O)(=O)c1cn(CC(=O)N(C)Cc2ccccc2)cc1S(=O)(=O)NC | – | inactive: 8.83%
Cc1ccccc1NC(=O)N1CCC(C(=O)c2ccc(F)cc2)CC1 | – | inactive: 2.97%
COc1cccc(NC(=O)c2cccc(OC)c2OC)c1 | inconclusive: 31.6 µM [inhibitor, single point] | –
COC(=O)C(NC(=O)CCc1c(C)nc2c(c(C)nn2-c2ccccc2)c1C)C(C)C (configuration not stated) | inconclusive: 11.2 µM [inhibitor, single point] | –
Cc1cc(C)c(S(=O)(=O)/N=C2/C=C(SCC(=O)O)C(=O)c3ccccc32)cc1C | inconclusive: 31.6 µM [inhibitor, single point] | –
Clc1ccccc1CN1CCN(/N=C/c2ccncc2)CC1 | inconclusive: 15.8 µM [inhibitor, single point] | –
COC1(C2=NCCN2)COc2ccccc2O1 (configuration not stated) | inconclusive: 20 µM [inhibitor, single point] | –
CC1CCCCN1CCNC(=O)c1ccc2c(c1)N(Cc1ccccc1F)C(=O)c1ccccc1S2=O (configuration not stated) | inconclusive: 15.8 µM [inhibitor, single point] | –
COc1ccc(/C=N/Nc2nc(Nc3ccccc3)nc(N3CCCC3)n2)cc1 | active: 10 µM | –

Compound | Potency | activity change, negative = inhibition
CC1=CC=CC2=NC(=O)CC(C)(C(=O)N(CC(=O)NC3CCCC3)c3ccccc3C)N12 (configuration not stated) | – | inactive: 4.09%
Cc1nc(Cl)cc(N/N=C/c2ccc(O)cc2)n1 | – | inactive: -5.97%
Cc1ccccc1OCCn1c(C)nc2ccccc21 | active: 5.62 µM | –
CCCN=C1N(C)C[C@@H]2[C@@H]3C(=O)N(C)C(=O)[C@@H]3[C@](C)(C(=O)OC)N12 | inconclusive: 3.16 µM [inhibitor, single point] | –
O=C(CSc1nc2ccccc2s1)Nc1ccc(N2CCOCC2)c(Cl)c1 | inconclusive: 7.94 µM [inhibitor, partial curve] | –
COc1ccc(Cc2nc3ccc(C(=O)NCCc4ccccn4)cc3o2)cc1OC | inconclusive: 22.4 µM [inhibitor, single point] | –
O=C(CN1CSCC1=O)N1CCN(S(=O)(=O)c2cc(C(F)(F)F)ccc2Cl)CC1 | inconclusive: 5.62 µM [inhibitor, single point] | –
O=C(CNc1cccc(C(F)(F)F)c1)N/N=C/c1cn(-c2ccccc2)nc1-c1ccccc1 | inconclusive: 31.6 µM [inhibitor, single point] | –
CC[C@@]12C(=O)N(c3cccc(Cl)c3)C(=O)N1[C@H](c1cccc(C)c1)[C@@H]1C(=O)N(Cc3ccccc3)C(=O)[C@@H]12 | inconclusive: 3.16 µM [inhibitor, single point] | –
Nc1ccccc1C(O)(Cc1ccccc1)c1ccccc1 (configuration not stated) | inconclusive: 5.62 µM [inhibitor, single point] | –
COc1ccc2nc(/C=N/NC(=O)CCCCCNC(=O)OC(C)(C)C)ccc2c1 | inconclusive: 6.31 µM [inhibitor, partial curve] | –
CCCN(CC1CCCO1)C(=O)c1cc(COc2cccc(OC)c2)on1 (configuration not stated) | – | inactive: -16%
Cc1cccc(NC(=O)c2ccc(F)c(S(=O)(=O)N3CCC4(CC3)OCCO4)c2)c1 | inconclusive: 14.1 µM [inhibitor, single point] | –
COc1ccc(-c2nc(-c3ccc(Br)o3)no2)cc1OC | inconclusive: 2.51 µM [inhibitor, partial curve, poor fit] | –
COc1ccc(N(CC(=O)NCc2ccc(Cl)cc2)S(=O)(=O)c2ccccc2[N+](=O)[O-])c(OC)c1 | inconclusive: 5.62 µM [inhibitor, single point] | –
COc1cc(OC)cc(C(=O)NNC(=O)c2ccc3ccccc3n2)c1 | inconclusive: 12.6 µM [inhibitor, partial curve] | –
Cc1cc(C)c2nc(N3CCCC(C(=O)NCCCN4CCOCC4)C3)sc2c1 (configuration not stated) | inconclusive: 11.2 µM [inhibitor, single point] | –
COc1ccccc1Cn1c(=S)[nH]c2cc(C(=O)NCc3cccnc3)ccc2c1=O | inconclusive: 31.6 µM [inhibitor, single point] | –
COc1cc(OC)cc(-c2c(-c3cccs3)c3cc(-c4ccc(OC)c(F)c4)ccc3n2C)c1 | inconclusive: 1.41 µM [inhibitor, partial curve] | –
CC(=O)N1c2ccc(S(=O)(=O)NCC3CCC(C(=O)N4CCCC(C)C4)CC3)cc2CC1C (configuration not stated) | – | inactive: -17%
CC(CCCC(C)(C)O)NC(=O)c1cc(COc2ccc3ncccc3c2)on1 (configuration not stated) | active: 5.62 µM | –
COc1ccc2[nH]c(=O)c(CN(CCO)C(=O)c3ccccc3F)cc2c1 | inconclusive: 3.16 µM [inhibitor, single point] | –
COc1ccccc1NC(=O)CN1CCN(c2ccc(F)cc2)CC1 | inconclusive: 25.1 µM [inhibitor, partial curve] | –

Compound | Potency | activity change, negative = inhibition
NNC(=S)NC1CCS(=O)(=O)C1 (configuration not stated) | – | inactive: 27.3%
CCOC(=O)C1=C(C)N(C[C@@H]2CC[C@@H](Cc3ccc(-c4ccccc4)cc3)O2)C(=O)NC1C1CC1 (some centres not stated) | inconclusive: 31.6 µM [inhibitor, single point] | –
O=C1c2cccc3c(N4CCCCC4)ccc(c23)C(=O)N1c1cccc(O)c1 | inconclusive: 11.2 µM [inhibitor, single point] | –
COc1ccc(CNc2nc(S(=O)(=O)c3ccccc3)c(Cl)s2)cc1OC | inconclusive: 8.91 µM [inhibitor, partial curve] | –
CCOC(=O)CSC1=C(C#N)C(c2ccco2)C(C(=O)Nc2cccc(C(F)(F)F)c2)=C(C)N1 (configuration not stated) | inconclusive: 11.2 µM [inhibitor, partial curve] | –
COc1ccc(NC(=O)C2CCN(S(=O)(=O)c3cccc4nonc34)CC2)cc1 | – | inactive: 5.7%
COC(=O)c1oc(-c2ccc(Cl)cc2)nc1C | – | inactive: -1.81%
CCOC(=O)C1=C(C)NC(SCc2cc(=O)[nH][nH]2)=C(C#N)C1c1cccs1 (configuration not stated) | inconclusive: 31.6 µM [inhibitor, single point] | –
CCOc1ccc(N2C(=O)CC(NCc3ccc(S(N)(=O)=O)cc3)C2=O)cc1 (configuration not stated) | – | inactive: 8.93%
C=CCN=C1S/C(=C\c2ccc(Cl)cc2)C(=O)N1CC=C | – | inactive: -6.06%
Cc1ccc(C(=O)c2coc3cc([N+](=O)[O-])c(O)c([N+](=O)[O-])c23)cc1 | – | inactive: -2.53%
COCCNC(=O)c1c(N)n(-c2ccccc2)c2nc3ccccc3nc12 | inconclusive: 20 µM [inhibitor, single point] | –
CN1CCN(CC(O)COCCOc2ccc(Br)cc2)CC1 (configuration not stated) | inconclusive: 31.6 µM [inhibitor, single point] | –
Cc1cc(NC(=O)CON=C(N)CC(=O)Nc2ccccc2Cl)ccc1Br | inconclusive: 3.55 µM [inhibitor, full curve, poor fit] | –
COc1ccccc1-c1sc2ccccc2c1-c1ccc2c(c1)OCO2 | inconclusive: 31.6 µM [inhibitor, single point] | –
C=CCn1c(SCC(=O)N2CCOCC2)nc2scc(-c3ccco3)c2c1=O | inconclusive: 11.2 µM [inhibitor, single point] | –
Cc1occc1-c1nnc(SCC(=O)NCC2CCCO2)n1C (configuration not stated) | inconclusive: 1.58 µM [inhibitor, partial curve] | –
COc1ccccc1-c1c(C)nn2c(-c3ccccc3)cc(C)nc12 | active: 5.01 µM | –
CCn1nnc(NC(=S)NC(=O)c2ccc(-c3cccc(Cl)c3)o2)n1 | – | inactive: -10.7%
CSc1ccccc1C(=O)C1CCCN(Cc2ccncc2)C1 (configuration not stated) | inconclusive: 31.6 µM [inhibitor, single point] | –
CSc1nc(-c2ccco2)cc(-c2ccccc2)c1C#N | inconclusive: 7.94 µM [inhibitor, partial curve] | –
